# Data taken from the supplement of paper PMC4466236.
# Over roughly 33,000 sequences, “E-score (dimensionless, -0.5 to 0.5)” has its median near -0.058; the highest 2% begin near 0.35. The list shows a part of the results.
# Test system: MvaT
# Test: PBM 8-mer E-score (mean of HK and ME arrays) (E-score (dimensionless, -0.5 to 0.5)); higher = stronger relative binding preference; most listed sequences are background and not binding sites
# In short: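 Full-length P. aeruginosa MvaT, with glutathione S-transferase fused to its N-terminus (cloned into pTH6838 by isothermal assembly), was tested by protein binding microarray using a previously described protocol. Two universal double-stranded 60-mer arrays (ME and HK) were used, each with a constant 25-mer primer region and a variable 35-mer region covering all 8-mers. The rank-based 8-mer E-score (-0.5 to 0.5) is the mean of the two arrays, parsed with a custom Python script.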
row,Sequence,PBM 8-mer E-score
1,GTAAGATA,0.175
2,ACCCTGGC,-0.236
3,ATATGGTA,0.316
4,AACGTAGT,0.000134
5,CACATTGA,0.14
6,GCTAAGCA,-0.164
7,ACTACATC,0.0407
8,CTCGTCAC,-0.132
9,GATCACAA,-0.15
10,ATATACAA,0.406
11,TATCAAAA,0.175
12,CCAAGCAC,-0.264
13,GCCCGAGA,-0.255
14,CAACTTTA,0.297
15,GAAACGGC,-0.049
16,ACGATCGT,-0.191
17,AGAACCAC,-0.13
18,GTGTGTAA,0.161
19,AAGGCCAT,-0.165
20,CTGCGCAC,-0.202
21,CCTCTTGA,-0.245
22,GGCCTGTA,-0.095
23,GTGGGGAA,-0.0945
24,GCGAAACA,0.0733
25,ACCATTGC,-0.0183

row,Sequence,PBM 8-mer E-score
1,CGAGTTAC,-0.0919
2,GGTGTTAA,0.149
3,GCCGGTCA,-0.0733
4,ATCATGCA,0.0287
5,CTCAATTC,-0.0532
6,CTCACGAG,-0.189
7,AGAGGTTC,-0.178
8,AAATACCG,0.271
9,CACGTCCC,-0.212
10,AGGTTGAA,-0.0276
11,AAGAGCTG,-0.0947
12,TGTAGGAA,-0.103
13,ATGTCCTA,-0.0549
14,ACATCCCT,-0.0651
15,CCGAAATA,0.28
16,CCTGTTTC,-0.0821
17,ATTGAAAG,0.195
18,AGCAGTCA,0.00122
19,TTATAGAA,0.2
20,CGCCACAG,-0.231
21,AGGCCCAA,-0.263
22,TATCCATA,0.185
23,CCTGCAGC,-0.193
24,CCGTTACA,0.0795
25,GCCGCATA,0.0601

row,Sequence,PBM 8-mer E-score
1,AAACCGTG,-0.0885
2,ACTTTTGG,0.076
3,TATCGGGA,0.0691
4,AGTTAGTG,0.15
5,AAATAGAT,0.235
6,TGCCAACA,-0.0277
7,ATTGACCC,-0.143
8,ACGGCGCT,-0.175
9,ACTTAAGG,0.113
10,ATAGGTGG,-0.0932
11,ACTCAACG,-0.157
12,ACCCCAAA,-0.0921
13,CCTAAATA,0.226
14,AGCACCTC,-0.245
15,GGCTCATA,-0.0439
16,CATTCCGA,-0.0359
17,CTGATAGC,-0.222
18,GGGGCCCA,-0.279
19,CAAATCAG,0.0407
20,TACGACGA,-0.0432
21,CTCCCAAA,-0.00676
22,AAGATCTG,-0.0201
23,CGCATCAA,0.0181
24,AAAATGGT,-0.0747
25,AAACAAAC,0.14

row,Sequence,PBM 8-mer E-score
1,AACAAGGG,-0.0513
2,ATATTTCA,0.329
3,CGGTCTTC,-0.198
4,GTGATCGA,-0.0688
5,GGAGTATA,0.21
6,GACCTCCA,-0.289
7,TCCGGCGA,-0.136
8,CCGGACAA,-0.15
9,AACGCGGC,-0.231
10,GTCCCTTA,-0.116
11,ATTGGCCA,-0.109
12,TGGTGCAA,0.0798
13,ATGAATGA,0.111
14,GGAAAGCC,-0.217
15,CCCATGAG,-0.0838
16,GAAGATGA,-0.128
17,ACCGTACA,-0.106
18,GAGAGCTA,-0.172
19,AACGACGA,0.0654
20,CTGACTAC,-0.0474
21,ACTAAACG,0.124
22,GTACGCCA,-0.164
23,CTCTATAA,0.081
24,ATAAGCAC,0.159
25,CATATAGG,0.151

row,Sequence,PBM 8-mer E-score
1,TACTGACA,0.103
2,ACTGTGAT,0.052
3,ACCGGCGA,-0.107
4,ACATCATC,0.0491
5,CTGGGTGC,-0.149
6,GGCCAATA,0.161
7,AAACTATC,0.301
8,CTCGTAGA,-0.166
9,AGCTTACA,0.0039
10,CGATTCCG,-0.0824
11,AAACCAGC,0.0746
12,GAAGTGGA,0.032
13,TAGCGGCA,0.0311
14,GGGAGGAA,-0.237
15,AGCCCTGA,-0.234
16,AGGAATCA,-0.0493
17,GTTGTGTA,0.176
18,AATTCTAT,0.185
19,CCTTTGCG,-0.261
20,ACTGAATC,0.0223
21,GAGTCGTA,-0.0812
22,GGCCCGTA,-0.161
23,AGGAACCA,0.0478
24,CCAATCAC,-0.0994
25,TCTAACAA,0.105

row,Sequence,PBM 8-mer E-score
1,TCCCGGCA,-0.125
2,CTTGTATA,0.246
3,CCACCCCC,-0.323
4,CAAGAAAG,0.00724
5,AGTACTGC,0.0406
6,ATGTGCTG,-0.0632
7,GTCTGTGA,-0.134
8,GAAAATCA,0.0231
9,CAGGACAA,-0.00859
10,CCCACGTA,-0.107
11,AGTCATGC,-0.244
12,CCGTACGA,-0.141
13,CCGGCCGC,-0.143
14,ACACTCAG,-0.115
15,AGGAAATA,0.151
16,CTTCACCA,-0.081
17,AAAAAAGG,0.0491
18,CTCTAGGA,-0.118
19,CTGAAATC,-0.0759
20,ACAGTGTC,-0.0753
21,TGTCAAAA,0.119
22,AATTGTAT,0.271
23,ATTTTGGA,0.212
24,CACTTCCC,-0.113
25,TTAGGAAA,0.114

row,Sequence,PBM 8-mer E-score
1,CTAGAAGA,-0.0187
2,AAGCTCCA,-0.0879
3,ACCGGCCC,-0.197
4,CGCCAGAA,-0.0432
5,CATTCCAA,0.00827
6,ATACACAG,0.0306
7,GGGTTATA,0.23
8,CATAAAGC,-0.128
9,AGGAATAC,0.17
10,TGGGGCAA,-0.0406
11,CGGGTATC,-0.0923
12,GCGGTCGA,-0.16
13,ATATTTAG,0.342
14,ATAGCATC,0.00869
15,AATTTCGC,0.0294
16,ATACGGCG,-0.11
17,GATCCGGA,-0.0845
18,AATTGCTG,0.0923
19,ATACCAAC,0.221
20,ACACGGCT,-0.214
21,ATGCGGCC,-0.188
22,GTCAGACA,-0.167
23,CCCTTGCA,-0.14
24,GGAGACGA,-0.133
25,CATACGCG,-0.0229

row,Sequence,PBM 8-mer E-score
1,GCCATGAA,-0.0834
2,CCAATGAC,-0.153
3,CGGCCACC,-0.225
4,TAACCCCA,-0.108
5,GCATCGAC,-0.194
6,CTTCCGAA,0.0328
7,TCCTAAAA,0.0593
8,CACCAGAA,-0.0779
9,AGGACACA,-0.021
10,GATGACGA,-0.075
11,GATCGTTA,-0.0614
12,CCAGGCGA,-0.206
13,ATCAGCTG,0.0407
14,ACCCCCGT,-0.319
15,CCTTACGC,-0.151
16,CTCCTCCC,-0.316
17,AATTGCTA,0.232
18,AATTACTA,0.323
19,CATATTAC,0.294
20,AATGCTGG,-0.0685
21,AGACTCGC,-0.134
22,ACGGGGCA,-0.17
23,CATACTCC,0.00539
24,AGTTGCTG,0.112
25,AAGATACG,0.0729

row,Sequence,PBM 8-mer E-score
1,CGCATAAG,0.113
2,GCTGAAAC,-0.102
3,ATGAGTCG,0.0116
4,GACAGCTA,-0.122
5,ATTCTGGG,0.0485
6,CCCGCGGA,-0.176
7,AAACCAAG,0.1
8,GGTCGGAA,-0.223
9,AGGACGTA,-0.138
10,CAGTTTTC,0.0105
11,AGCCTGAG,-0.26
12,AATGTCAA,0.207
13,AGACAACC,-0.158
14,ATGCACAG,0.0355
15,AAAACAGG,0.0694
16,CAGTCAAC,0.0726
17,ACATAAAG,0.101
18,AGCAGCCC,-0.222
19,GGGCTCTA,-0.197
